# According to paper PMC4336329 (PLoS ONE, 2015):
# The campaign covered roughly 310,000 compounds. About 2,200 (0.71%) showed an effect of 50% or more. Effects have a minus sign here. Some of the results follow.
# Biological target: human ether-à-go-go-related gene (hERG) potassium channel (human, UniProt Q12809)
# Experiment: primary screen, population patch clamp on CHO cells stably expressing hERG
# Sequence of human ether-à-go-go-related gene (hERG) potassium channel (Q12809 whole entry, looked up): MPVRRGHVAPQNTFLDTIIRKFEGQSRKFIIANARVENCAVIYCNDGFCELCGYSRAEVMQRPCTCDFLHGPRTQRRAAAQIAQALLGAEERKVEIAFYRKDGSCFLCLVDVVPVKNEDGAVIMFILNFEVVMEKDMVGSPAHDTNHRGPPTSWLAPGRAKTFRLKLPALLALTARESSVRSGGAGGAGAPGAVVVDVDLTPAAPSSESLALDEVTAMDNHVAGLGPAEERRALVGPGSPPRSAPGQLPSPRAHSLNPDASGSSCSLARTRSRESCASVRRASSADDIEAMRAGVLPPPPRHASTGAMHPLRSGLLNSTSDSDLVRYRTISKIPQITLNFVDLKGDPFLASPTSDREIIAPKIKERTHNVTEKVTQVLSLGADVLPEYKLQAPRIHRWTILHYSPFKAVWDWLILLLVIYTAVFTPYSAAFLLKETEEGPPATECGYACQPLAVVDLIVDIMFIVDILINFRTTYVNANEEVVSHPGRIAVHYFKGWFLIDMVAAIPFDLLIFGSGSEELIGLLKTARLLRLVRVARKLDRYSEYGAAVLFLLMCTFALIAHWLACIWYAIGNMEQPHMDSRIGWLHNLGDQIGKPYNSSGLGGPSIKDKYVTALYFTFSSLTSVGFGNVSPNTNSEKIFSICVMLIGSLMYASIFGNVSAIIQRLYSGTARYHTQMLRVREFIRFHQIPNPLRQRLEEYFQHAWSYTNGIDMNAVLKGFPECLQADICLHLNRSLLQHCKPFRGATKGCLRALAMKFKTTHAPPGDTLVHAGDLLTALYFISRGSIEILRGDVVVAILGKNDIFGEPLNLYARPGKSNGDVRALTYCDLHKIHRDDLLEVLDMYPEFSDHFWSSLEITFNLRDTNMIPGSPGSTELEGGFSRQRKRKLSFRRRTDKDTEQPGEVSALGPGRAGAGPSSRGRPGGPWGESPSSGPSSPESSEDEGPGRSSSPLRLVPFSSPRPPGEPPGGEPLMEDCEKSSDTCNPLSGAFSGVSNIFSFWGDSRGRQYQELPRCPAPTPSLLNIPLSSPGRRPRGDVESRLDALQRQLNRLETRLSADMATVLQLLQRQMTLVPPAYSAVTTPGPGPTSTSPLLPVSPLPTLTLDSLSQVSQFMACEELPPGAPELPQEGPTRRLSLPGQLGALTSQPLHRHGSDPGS
row,Structure (SMILES),"hERG current change (%, negative = inhibition) at 1uM [%]"
1,Cc1cc(=O)[nH]c(NN=C2C3CC4CC(C3)CC2C4)n1,5.42
2,CC(=O)c1cc(C#N)c(SCc2ccc(F)cc2)nc1C,11.7
3,Cc1ccc(C23CC4CC(CC(CC(=O)NC(C)(C)CO)(C4)C2)C3)cc1,9.65
4,CC(C)CN1C(=O)C(=O)N(CC(=O)NCc2ccc3c(c2)OCO3)C1=O,9.96
5,Cc1sc2c(c1C)c(=O)n(-c1cccc(C(F)(F)F)c1)c(=O)n2CC(=O)NCc1ccco1,12.9
6,CC1CCCCC1n1c(=S)[nH]c2ccccc2c1=O (stereo not drawn),5.93
7,CCN(CC)S(=O)(=O)c1cc(NS(=O)(=O)c2c(Cl)cccc2Cl)ccc1C,2.37
8,CCn1c(=O)cc(SCC(=O)NCCCN2CCN(c3ccccc3F)CC2)c2ccccc21,-17.6
9,Cc1cccc(OCC(O)CN2CCOCC2)c1.Cl (stereo not drawn),11.1
10,Cc1cccc(OCC(=O)Nc2ccc(C(=O)c3ccc(C(=O)O)cc3)cc2)c1,4.44
11,CCOC(=O)c1c(C)nc2sc(C(N)=O)c(N)c2c1-c1ccc(OC)cc1,10.8
12,O=C1O[C@@H](c2ccc(O)cc2)Cc2cccc(O)c21,13.7
13,O=C(Nc1ccc(Cl)c(Cl)c1)Nc1ccccn1,11.4
14,Cc1ccc(N(C(=O)CNC(=O)c2ccco2)C(C(=O)NC2CCCCC2)c2cccnc2)cc1 (stereo not drawn),3.44
15,COC(=O)C(Cc1cncn1COCc1ccccc1)NC(=O)OC(C)(C)C (stereo not drawn),7.05
16,Cc1nn(-c2ccccc2)c2c1C1(C(=O)N(C)c3ccccc31)C(C#N)=C(N)O2 (stereo not drawn),7.49
17,CCC(=O)N(c1nnc(SCC(=O)Nc2ccccc2Cl)s1)C1CC1,22.8
18,C=CCC(C)(NCc1ccccc1)c1ccccc1.Cl (stereo not drawn),-0.731
19,CCn1c(C)cc(/C=C2\NC(=O)N(CC(=O)Nc3ccc(F)cc3)C2=O)c1C,9.23
20,O=C1C=C(Nc2cccc(Cl)c2)CC(c2ccco2)C1 (stereo not drawn),6.67
21,CC(C)(C)c1ccc(NC(=O)C(=O)C2C(=O)Nc3ccccc32)cc1 (stereo not drawn),1.65
22,CCOC(=O)N1CCN(c2c(N3CCc4ccccc4C3)c(=O)c2=O)CC1,9.24
23,CC(Sc1nc2c([nH]c3ccccc32)c(=O)n1C)c1ccccc1 (stereo not drawn),12

row,Structure (SMILES),"hERG current change (%, negative = inhibition) at 1uM [%]"
1,CCNC(=S)N/N=C/c1ccccc1[N+](=O)[O-],13.9
2,CCCCC(=O)NNC(=S)NCc1ccccc1,10.3
3,CCOC(=O)c1c(C)[nH]c(C)c1S(=O)(=O)NCc1ccccc1C,17.7
4,CCCCCCNC(=O)CSc1nccn1Cc1ccccc1,-6.96
5,O=C(C1CCN(S(=O)(=O)c2ccccc2)CC1)N1CCN(Cc2ccccc2)CC1,5.49
6,COc1ccc(CCN(Cc2nc3ccccc3c(=O)[nH]2)C(=O)c2ccco2)cc1,2.74
7,COc1ccc(C(=O)N2CCN(c3cccc(Cl)c3)CC2)cc1,-2.41
8,CN(C)C1=NCCN1CC1CCCCC1,10.9
9,CCOC(=O)CSc1nnc(CSc2nc(N)c3c(C)c(C)sc3n2)n1-c1ccccc1,10.2
10,CC(C(=O)Nc1ccccc1Oc1ccccc1)c1ccccc1 (stereo not drawn),7.34
11,CCN1C(=O)[C@H]2[C@@H](c3ccc(-c4ccccc4)cc3)N3CCC[C@@]3(C(=O)OC)[C@H]2C1=O.O=C(O)C(F)(F)F,9.68
12,O=C(CCCN1CCC(C(=O)c2ccc(F)cc2)CC1)c1ccc(F)cc1,-86.2
13,Cl.c1ccc(-c2nc(NCc3ccco3)c3oc4ccccc4c3n2)cc1,15.7
14,Cc1cc(Cl)c(S(=O)(=O)N2CCCC2)cc1OCC(N)=O,6.85
15,CCCc1cc(N2CCCC(C(=O)NCc3ccc4c(c3)OCO4)C2)n2ncnc2n1 (stereo not drawn),-34.2
16,O=C(COC(=O)C1CC1)Nc1ccc(Cl)cn1,9.88
17,Cc1ccc(CNC(=O)CSc2nnc3n2CCCCC3)cc1,1.62
18,O=C(NC1CCS(=O)(=O)C1)/C(=C\c1ccco1)NC(=O)c1ccccc1 (stereo not drawn),1.49
19,O=C(CN1C(=O)NC2(CCCCCCC2)C1=O)Nc1ccc(Br)cc1Br,5.73
20,c1ccc(Cn2nnc3c(NCc4ccc5c(c4)OCO5)nc(C4CC4)nc32)cc1,14
21,COc1ccc(N2CCN(C(c3cccs3)C(C)NC(=O)c3ccco3)CC2)cc1 (stereo not drawn),14.5
22,O=C(COC(=O)Cc1ccc(S(=O)(=O)N2CCOCC2)s1)NCc1ccc(Cl)cc1,0.696
